Measurements from the RNAGym collection of RNA variant scans (doi:10.1073/pnas.2313332121).
Variants at the background level are over-represented here.

B1: TPR 5TU (parent)
chain: GGAUCUUCUCGAUCUAACAAAAAAGACAAAUCUGCCACAAAGCUUGAGAGCAUCUUCGGAUGCAGAGGCGGCAGCCUUCGGUGGCGCGAUAGCGCCAACGUUCUCAACUAUGACACGCAAAACGCGUGCUCCGUUGAAUGGAGUUUAUCAUG

Variants of: B1
Test: polymerase ribozyme fitness, log enrichment relative to wild type (log ratio); higher = more active; in vitro selection for triplet polymerase activity
Summary of the method: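 Genotype fitness is the logarithm of its enrichment divided by wild-type enrichment, using inverse-variance-weighted averages of replicates. That logarithm is base 2. Enrichment was measured by Illumina sequencing of input and output libraries from one triplicate in vitro selection round, with frozen incubation at −7 °C, on PCR-built, transcribed mutant libraries of each subunit of a heterodimeric triplet polymerase ribozyme, retaining genotypes with ≥10 input reads and ≥1 read per output.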

Variant	polymerase ribozyme fitness (log ratio)
GGAUCUUCUCGAUCUAACAAAAAAGACAAAUCUGACACAAAGCUUGAGAGCAUCUUCCGAUGCAGAGGCGGCAGGCUUCGGUGGCGCGAUAGCGCCAACGUUCUCAACUAUGACACGCAAAACGCGUGCUCCGUUGAAUGGAGUUUAUCAUG [C35A G58C C75G]	≤ -4.2
GGAUCUUCUCGAUCUAACAAAAAAGACAAAUCUGACACAAAGCUUGAGAGCAUCUUCUGAUGCAGAGGCGGCAGCCUUCGGUGGCGCGAUAGCGCCAACGUUCUCAACUAUGACACGCAAAACGCGUGCUCCGUUGAAUGGAGUUUAUCAUG [C35A G58U]	-2.81
GGAUCUUCUCGAUCUAACAAAAAAGACAAAUCUGACACAAAGCUUGAGAGCAUCUUCGAAUGCAGAGGCGGCAGCCUUCGGUGGCGCGAUAGCCCCAACGUUCUCAACUAUGACGCGCAAAACGCGUGCUCCGUUGAAUGGAGUUUAUCAUG [C35A G59A G94C A115G]	≤ -4.2
GGAUCUUCUCGAUCUAACAAAAAAGACAAAUCUGACACAAAGCUUGAGAGCAUCUUCGGAUGCAUAGGCGGCAGCCUUCGGUCGAGCGAUAGCGCCAACGUUCUCAACUAUGACACGCAAAACACGUGCUCCGUUGAAUGGAGUUUAUCAUG [C35A G65U G83C C85A G124A]	≤ -4.2
GGAUCUUCUCGAUCUAACAAAAAAGACAAAUCUGACACAAAGCUUGAGAGCAUCUUCGGAUGCAGAGACGGCAGCCUUCGGUGGCGCGAUAGCGCGGACGUUCUCAACUAUGACAUGCAAAACGCGUGCUCCGUUGAAUGGAGUUGAUCAUG [C35A G68A C96G A97G C116U U146G]	≤ -4.2
GGAUCUUCUCGAUCUAACAAAAAAGACAAAUCUGACACAAAGCUUGAGAGCAUCUUCGGAUGCAGAGGCGGCAACCUUCGGUGGCGCGAUAGCGCCAACGUUCUCAACUAUGACACGCAAAACGCGUGCUCCGUUGAAUGGAGGUUAUGAUG [C35A G74A U144G C149G]	≤ -4.2
GGAUCUUCUCGAUCUAACAAAAAAGACAAAUCUGACACAAAGCUUGAGAGCAUCUUCGGAUGCAGAGGCGGCAGCCUUCGCUGGCGCGAUAGCGCCAACGUUCUCAACUAUGACACGCAAAACGCGUGCUCCGUUGAAUCGAGUGUAUCAUG [C35A G81C G140C U145G]	≤ -4.2
GGAUCUUCUCGAUCUAACAAAAAAGACAAAUCUGACACAAAGCUUGAGAGCAUCUUCGGAUGCAGAGGCGGCAGCCUUCGUUGGCGCGAUAGCGCCUUCGUUCUCAACUAUGACACGCAAAACGCGUGCUCCGUUGAAUGGAGUUUAUCAUG [C35A G81U A97U A98U]	-3.76
GGAUCUUCUCGAUCUAACAAAAAAGACAAAUCUGACACAAAGCUUGAGAGCAUCUUCGGAUGCAGAGGCGGCAGCCUUCGGUCGCGCGAUAGCGCCAACGUUCUCAACUAUGACACGCAAAACGCGUGCUCCGUUGAAUGGAGUUUAUCAUG [C35A G83C]	-3.93
GGAUCUUCUCGAUCUAACAAAAAAGACAAAUCUGACACAAAGCUUGAGAGCAUCUUCGGAUGCAGAGGCGGCAGCCUUCGGUUGCGCGAUAGCGCCAACGUUCUCAACUAUGACACGCAAAACGCGUGCUCCGUUGAAUGGAGUUUAUCAUG [C35A G83U]	≤ -4.2
GGAUCUUCUCGAUCUAACAAAAAAGACAAAUCUGACACAAAGCUUGAGAGCAUCUUCGGAUGCAGAGGCGGCAGCCUUCGGUGGCGCGAUAGCGCCAACAUUCUCAACUAUGACACGCAAAACGGGUGCUGCGUUGAAUGGAGUUUAUCAUG [C35A G100A C125G C131G]	≤ -4.2
GGAUCUUCUCGAUCUAACAAAAAAGACAAAUCUGACACAAAGCUUGAGAGCAUCUUCGGAUGCAGAGGCGGCAGCCUUCGGUGGCGCGAUAGCGCCAACGUUCUCAACUAUGACACGCAAAACGCAUGCUCCGUUGAAUGGAGUUUAUCAUG [C35A G126A]	-3.51
GGAUCUUCUCGAUCUAACAAAAAAGACAAAUCUGACACAAAGCAUGAGAGCAUCUUCGGAUGUAGAGGCAGCAGCCUUCCGUGGCGGGAUAGCGCCAACGUUCUCAACUAUGACACGCAAAACGCGUGCUCCGUUGAAUGGAGUUUAUCAUG [C35A U44A C63U G70A G80C C87G]	≤ -4.2
GGAUCUUCUCGAUCUAACAAAAAAGACAAAUCUGACACAAAGCUUGAGAGCAACUUCGGAACCGGCGGCGGCAGCCUUCGGUGGCGGGAUAGCGCCAACGUUCUCAACUAUGACACGCAAAACGCGUGCUCCGUUGAAUGGAGUUUAUCAUU [C35A U53A U61A G62C A64G A66C C87G G152U]	≤ -4.2
GGAUCUUCUCGAUCUAACAAAAAAGACAAAUCUGACACAAAGCUUGAGAGCAUCAUCGGAUGCAGAGGCGGCAGCCUUCGGUGGGGCGAUAGCGCCAACGUUCUCAACUAUGACACGCAAAACGCGUGCUCCGUUGAAUCGAGUUUAUCAUG [C35A U55A C85G G140C]	≤ -4.2
GGAUCUUCUCGAUCUAACAAAAAAGACAAAUCUGACACAAAGCUUGAGAGCAUCAUCGGAAGCAGAGGCGGCAGCCUUCGGUGGCGCGAUGGCGCCAACGUUCUCAACUAUGACACGUAGAACGCGUGCUCCGUUGAAUGCAGUUUAUCAUG [C35A U55A U61A A91G C118U A120G G141C]	≤ -4.2
GGAUCUUCUCGAUCUAACAAAAAAGACAAAUCUGACACAAAGCUUGAGAGCAUCGUCGGAUGCAGAGGCGGCGGCCUUCGUUGGCACGAUAGCGCCAACGUUCUCAACUAUGACACGCAAAACGCGUGCUCCGUUGAAUGGAGUUUAUCAUG [C35A U55G A73G G81U G86A]	≤ -4.2
GGAUCUUCUCGAUCUAACAAAAAAGACAAAUCUGACACAAAGCUUGAGAGCAUCUACGGAUGCAGAGGCGGCAGCCUUCGGUGGCGCGAUAGCGCUAACGUUCUCAACUAUGACACGCAAAGCGCGUGCUCCGUUGAAUGGAGUUUAUCAUG [C35A U56A C96U A122G]	≤ -4.2
GGAUCUUCUCGAUCUAACAAAAAAGACAAAUCUGACACAAAGCUUGAGAGCAUCUUCGGAAGCAGAGGCGGCAGCCUUCGGUGGCGCGAUAGCGCUAACGUUCUCAACUAUGACACGCAAAACGCGUGCUCCGUUGAAUGGAGUUUAUCAUG [C35A U61A C96U]	≤ -4.2

Variant	polymerase ribozyme fitness (log ratio)
GGAUCUUCUCGAUCUAACAAAAAAGACAAAUCUGACACAAAGCUUGAGAGCAUCUUCGGAAGCAGAGGCGGCAGCCUUCGGUGACGCGAUAGCGCUAACGUGCUUAACUAUGACACGCAAAACGCGUGCUCCGUUGAAUGGAGUUUAUCAUG [C35A U61A G84A C96U U102G C105U]	≤ -4.2
GGAUCUUCUCGAUCUAACAAAAAAGACAAAUCUGACACAAAGCUUGAGAGCAUCUUCGGAUGCAGAGGCGGCAGCCGUCGGUAGCGCGAUAGCGCCAACGUUCUCAACUAUGACACAUAAAACGCGUGCUCCGUUGAAUGGAGUUUAUCAUG [C35A U77G G83A G117A C118U]	≤ -4.2
GGAUCUUCUCGAUCUAACAAAAAAGACAAAUCUGACACAAAGCUUGAGAGCAUCUUCGGAUGCAGAGGCGGCAGCCUUCGGUGGCGCGAUAGCGCCAACGUUCUCAACUAUGACACGCAAAACGCGUGCUCCGUUGAAUGGAGUUAAUCAUG [C35A U146A]	-3.32
GGAUCUUCUCGAUCUAACAAAAAAGACAAAUCUGGCACCAAGCUUGAGAGCAUCUUCGGAUGCAGAGGCGGCAGCCUUCGGCGGCGCGAUAGCGCCAACGUUCUCAACUAUGACAUGCAAAACGGGUGCUCCAUUGAAUGGAGUUUAUCAUG [C35G A39C U82C C116U C125G G133A]	≤ -4.2
GGAUCUUCUCGAUCUAACAAAAAAGACAAAUCUGGCACUAAGCUUGAGAGCAUCUUCGGAUGCAGAGGCGGCAGGCUUCGGUGGCGCGUUAGCGCUAACGUUCUCAACUAUGACACGCAACACGCGUGCUCCGUUGAAUGGAGUUUAUCAUG [C35G A39U C75G A89U C96U A121C]	≤ -4.2
GGAUCUUCUCGAUCUAACAAAAAAGACAAAUCUGGCACAAAGCUUGAGAGCAUCUUCGGAUGCAGAGGCGGCAGCCUUCGGUGGCGCGCUAGCGCGAACGUUCUCAACUAUGACACGCAAAACGCGUGCUCCGUUGAAUGGAGUUUAUCAUG [C35G A89C C96G]	-4.02
GGAUCUUCUCGAUCUAACAAAAAAGACAAAUCUGGCACAAAGCUUGAGAGCAUCUUCGGAUGCAGAGGCGGCAGCCUUCGGUGGCGCGAUAGCGCCAACGUUCUCAACUAUGACGCGCAAAACGCGUGCUCCGUUGAAUGGAGUUUAUCAUG [C35G A115G]	-3.92
GGAUCUUCUCGAUCUAACAAAAAAGACAAAUCUGGCAUAAAGCUUGAGAGCAUCUUCGGAUGCAGAGGCGGCAGCCUUCGGUGGAGCGAUAGCGCCAAAGUUGUCAACUAUGACACGCAAAACGCGCGCUCCGUCGAAUGGAGUUUUUCAUG [C35G C38U C85A C99A C103G U127C U135C A147U]	≤ -4.2
GGAUCUUCUCGAUCUAACAAAAAAGACAAAUCUGGCACAAAGCUUGAGAGGAUCUGCGGAUGCAGAGGCAGCAGCGUUCGGUGGGGCGAUAGCGCCAACGUUCUCAACUAUGACACGCAAAACGCGUGCUCCUUUGAAUGGAGUUUAUCAUG [C35G C51G U56G G70A C76G C85G G133U]	≤ -4.2
GGAUCUUCUCGAUCUAACAAAAAAGACAAAUCUGGCACAAAGCUUGAGAGCAUCUUUGGAAGCAGAGGCGGCAGCCUUCGGUGGCGCGAUAGCGCCAACGUUCUCAACUAUGACACGCAAAACGCGUGCUCCGUUGAAUGGAGUUUAUCAUG [C35G C57U U61A]	≤ -4.2
GGAUCUUCUCGAUCUAACAAAAAAGACAAAUCUGGCACAAAGCUUGAGAGCAUCUUCGGAUGCAGAGGCGGCAGGCUUCGGUGGCGCAAUAGCGCCAACGUUCUCAAUUAUGACACGCAAAAGGCGUGCUCCUUUGAAUGAAGUUUAUCAUG [C35G C75G G88A C108U C123G G133U G141A]	≤ -4.2
GGAUCUUCUCGAUCUAACAAAAAAGACAAAUCUGGCACAAAGCUUGAGAGCAUCUUCGGAUGCAGAGGCGGCAGCCUUCGGUGGCGUGAUAGCGCCAACGUUCUCAACUAUGACACGUAAAACGCGUGCUCCGUUGAAUGGAGUUUAUCAUG [C35G C87U C118U]	-4.18
GGAUCUUCUCGAUCUAACAAAAAAGACAAAUCUGGCACAAAGCUUGAGAGCAUCUUCGGAUGCAGAGGCGGCAGCCUUCGGUGGCGCGAUAGGGCGAACGUUCUCAACUAUGACACGCAAAAUGCGUGAUCCGUUGAAUGGAGUUUAUCAUG [C35G C93G C96G C123U C129A]	≤ -4.2
GGAUCUUCUCGAUCUAACAAAAAAGACAAAUCUGGCACAAAGCUUGAGAGCAUCUUCGGAUGCAGAGGCGGCAGCCUUCGGUGGCGCGAUAGUGCCAACGUUCUCAACUAUGACACGCAAAACUCGUGCUCCGUUGAAUGGACUUUAUCAUG [C35G C93U G124U G143C]	≤ -4.2
GGAUCUUCUCGAUCUAACAAAAAAGACAAAUCUGGCACAAAGCUUGAGAGCAUCUUCGGAUGCAGAGGCGGCAGCCUUCGGUGGCGCGAUAGCGCUAACGUGCUCAACUAUGACAUGCAAAACGUGUGCUCCGUUGAAUGGAGUUUAUCAGG [C35G C96U U102G C116U C125U U151G]	≤ -4.2
GGAUCUUCUCGAUCUAACAAAAAAGACAAAUCUGGCACAAAGCUUGAGAGCAUCUUCGGAUGCAGAGGCGGCAGCCUUCGGUGGCGCGAUAGCGCCAACGUUCUUAACUAUGACACGCAAAACGCGUGAUCCGUUGAAUGGAGUUUAUCCUG [C35G C105U C129A A150C]	-4.14
GGAUCUUCUCGAUCUAACAAAAAAGACAAAUCUGGCACAAAACUUGAGAGCAUCUUCGGAUGCAGAGGCGGCAGCCUUCGGUGGCUCGAGAGCGCCAACAUUCUCAACUAUGACACGCAAGACGCGUACUCCGUUGAAUGGAGUUUAUCAUG [C35G G42A G86U U90G G100A A121G G128A]	≤ -4.2
GGAUCUUCUCGAUCUAACAAAAAAGACAAAUCUGGCACAAAGCUUGAGAUCAUCUUCAGAUGCAGCGGCGGCAGCCUUCGGUGGCGCGAUAGCGCCAACGUUAGCAACUAUGACACGCAAAACGCGUGCUCCGUUGUAUGGAGUUUAUCAUG [C35G G50U G58A A66C C103A U104G A137U]	≤ -4.2
GGAUCUUCUCGAUCUAACAAAAAAGACAAAUCUGGCACAAAGCUUGAGAGCAUCUUCCGAUGCAGAGGCGGCAGCCUUCGGUGGCGCGAUAGCGCCAACGUUCUCAACUAUGACACGCAAAACGUGUGCUCCGUUGAAUGGAGUUUCUCAUG [C35G G58C C125U A147C]	≤ -4.2
